The labels stand for the following.
B1: PhoQ; a variant is named by its letters at X, in order, P23837 (parent)
chain: MKKLLRLFFPLSLRVRFLLATAAVVLVLSLAYGMVALIGYSVSFDKTTFRLLRGESNLFYTLAKWENNKLHVELPENIDKQSPTMTLIYDENGQLLWAQRDVPWLMKMIQPDWLKSNGFHEIEADVNDTSLLLSGDHSIQQQLQEVREDDDDAEMTHSVAVNVYPATSRMPKLTIVVVDTIPVELKSSYMVWSWFIYVLSANLLLVIPLLWVAAWWSLRPIEALAKEVRELEEHNRELLNPATTRELTSLVRNLNRLLKSERERYDKYRTTLTDLTHSLKTPLXXLQXXLRSLRSEKMSVSDAEPVMLEQISRISQQIGYYLHRASMRGGTLLSRELHPVAPLLDNLTSALNKVYQRKGVNISLDISPEISFVGEQNDFVEVMGNVLDNACKYCLEFVEISARQTDEHLYIVVEDDGPGIPLSKREVIFDRGQRVDTLRPGQGVGLAVAREITEQYEGKIVAGESMLGGARMEVIFGRQHSAPKDE

Some of the results follow.

The variants in this test derive from B1. In words: enrichment ratio after two sorts for PhoP signalling (ratio (wild type AVST 3.29)); higher = more functional. The conditions noted are these: with PhoP (E. coli).
In the case of KSCH, the enrichment ratio was at most 0.25.

Consider HENW, for which the enrichment ratio was at most 0.25.

With TMIR, the enrichment ratio is at most 0.25. Take QCLF: the enrichment ratio is at most 0.25. On to HHSG, for which the enrichment ratio is at most 0.25. On to SLMG, for which the enrichment ratio is 4.54. Turning to SEVW, the enrichment ratio is at most 0.25. Take MSMQ: the enrichment ratio stood at 5.89. The result for VLCG reads at most 0.25; that for FEYS, at most 0.25; that for KNYQ, at most 0.25. The result for FNDI reads at most 0.25; that for LYHY, at most 0.25.

For HMRF, the enrichment ratio was at most 0.25. To PWPF belongs at most 0.25; to PMHD, at most 0.25; to HEPC, at most 0.25. As for EHHG, the enrichment ratio is at most 0.25. In the case of LSPS, the enrichment ratio was at most 0.25.

For the variant YPID, the enrichment ratio is at most 0.25. The result for FEET reads at most 0.25; that for PSDT, at most 0.25; that for EYPA, at most 0.25.

As for LGEV, the enrichment ratio is at most 0.25. To LHMH belongs at most 0.25; to VPAR, at most 0.25.

As for WNHS, the enrichment ratio is at most 0.25. On to MFGI, for which the enrichment ratio is at most 0.25. To SFLL belongs 3.56; to RYSE, at most 0.25; to EYRS, at most 0.25. The result for EKWV reads at most 0.25. To GVPW belongs at most 0.25; to TLVG, at most 0.25. Take VSDS: the enrichment ratio is at most 0.25. The result for SMGN reads 2.13; that for DHRQ, at most 0.25; that for YHVA, at most 0.25. With LTGM, the enrichment ratio was at most 0.25. To HWPE belongs at most 0.25; to WHCD, at most 0.25. To TWMQ belongs at most 0.25; to MPLQ, at most 0.25. To IREV belongs at most 0.25; to YSWP, at most 0.25.

Take MYYT: the enrichment ratio is at most 0.25. The result for QLCV reads at most 0.25; that for TALM, 15.3; that for VEPI, at most 0.25. For TWYT, the enrichment ratio is at most 0.25.

LDQA: the enrichment ratio is at most 0.25.

Take LSVP: the enrichment ratio is at most 0.25. Consider EVFW, for which the enrichment ratio is at most 0.25.

Regarding TWAT, the enrichment ratio was at most 0.25. The result for PGGM reads at most 0.25; that for HFHG, at most 0.25.

Take PWVM: the enrichment ratio is at most 0.25. On to SQRV, for which the enrichment ratio is at most 0.25. As for IDEL, the enrichment ratio was at most 0.25. PAQD: the enrichment ratio is at most 0.25. Consider RAPV, for which the enrichment ratio amounted to 0.874. To WCGR belongs at most 0.25. To EYGL belongs at most 0.25. To RIYF belongs at most 0.25; to GTNY, at most 0.25; to RIAG, at most 0.25.

Consider GPAA, for which the enrichment ratio was at most 0.25. For the variant VAMH, the enrichment ratio was at most 0.25. To FCST belongs at most 0.25; to YCHF, at most 0.25. To KMCR belongs at most 0.25; to RKIG, at most 0.25. For the variant EEQS, the enrichment ratio was at most 0.25. To AEYH belongs at most 0.25.

Turning to WCFA, the enrichment ratio was at most 0.25. Regarding GTIM, the enrichment ratio is 2.86. The result for VDRS reads at most 0.25; that for PYTH, at most 0.25; that for DVIQ, at most 0.25. As for AFCF, the enrichment ratio is at most 0.25. Regarding SQGW, the enrichment ratio is at most 0.25. Regarding MQHD, the enrichment ratio was at most 0.25. For the variant NAGD, the enrichment ratio was at most 0.25. To FAGM belongs at most 0.25. To GEGP belongs at most 0.25; to QAWR, at most 0.25.

As to EANG, the enrichment ratio is at most 0.25.

In the case of FCDW, the enrichment ratio was at most 0.25. To PVIM belongs at most 0.25.

For RSGW, the enrichment ratio was at most 0.25. In the case of NFPT, the enrichment ratio is at most 0.25. For LEYW, the enrichment ratio is at most 0.25. NEAG: the enrichment ratio amounted to 2.93.

For the variant WEVC, the enrichment ratio is at most 0.25. The result for AQRT reads at most 0.25; that for HQVP, 1.27.

For IKIL, the enrichment ratio is at most 0.25.

For the variant MPRC, the enrichment ratio is at most 0.25.

Consider ARKV, for which the enrichment ratio is at most 0.25. To GYYQ belongs at most 0.25; to RSCG, at most 0.25; to YRFR, at most 0.25. Consider GLME, for which the enrichment ratio is at most 0.25. To TRDA belongs at most 0.25. EGLG: the enrichment ratio is at most 0.25. Consider MAAC, for which the enrichment ratio is at most 0.25.

Turning to KMQR, the enrichment ratio is at most 0.25.

On to NVAF, for which the enrichment ratio was at most 0.25.

Take TETD: the enrichment ratio was 2.04. The result for STHS reads at most 0.25; that for AQAT, 5.01.

Take HLKW: the enrichment ratio is at most 0.25. For AMVS, the enrichment ratio is 2.64. To IPGW belongs at most 0.25; to LFKS, at most 0.25. The result for SWVI reads 0.656; that for TVYT, at most 0.25. On to WCCR, for which the enrichment ratio is at most 0.25. Consider QEFC, for which the enrichment ratio is at most 0.25. To TYKG belongs at most 0.25; to KFQY, 0.877; to IWPA, at most 0.25. To SASG belongs 8.64; to NPLG, at most 0.25; to VITK, at most 0.25. To PFSS belongs at most 0.25; to MIHY, at most 0.25. As to THNI, the enrichment ratio worked out at 14.1.

Take ITEG: the enrichment ratio was 0.328. The result for ALHM reads at most 0.25; that for WVLA, at most 0.25. To YMWK belongs at most 0.25. For EQLK, the enrichment ratio was at most 0.25.

Turning to KPHW, the enrichment ratio is at most 0.25. To ESMI belongs at most 0.25; to TAID, at most 0.25. To MVHN belongs at most 0.25. To EPGN belongs at most 0.25. In the case of DDAL, the enrichment ratio is at most 0.25. On to NVDF, for which the enrichment ratio was at most 0.25. Consider TSLK, for which the enrichment ratio is 5.37. The result for TQMM reads 57.7.

As to WKHP, the enrichment ratio was at most 0.25.

Regarding LDPD, the enrichment ratio was at most 0.25. As for VQAK, the enrichment ratio is at most 0.25. Turning to KKSW, the enrichment ratio is at most 0.25. The result for MAQY reads at most 0.25. To SQHK belongs at most 0.25; to MGHA, at most 0.25; to HMVD, at most 0.25. In the case of PHCN, the enrichment ratio was at most 0.25. The result for SSNV reads 3.46; that for AMDN, at most 0.25.

These data come from a collection of fitness landscapes (doi:10.1126/science.1257360).
